Data: PubChem BioAssay AID504333 (National Center for Advancing Translational Sciences (NCATS), 2011)
In all, about 360,000 compounds went through this assay and about 16,000 (4.4%) were called active. The shares of active, inactive and inconclusive entries below differ from those in the screen. Calls come from the whole dose curve; as a rule, active = well fitted inhibition curve with a large enough effect; inconclusive = small, poorly fitted or top-dose-only effect; inactive = no such curve, though single readings can be large or run the other way. Potencies of inconclusive entries are doubtful fits and often do not repeat.

molecular target: Bromodomain adjacent to zinc finger domain protein 2B (Homo sapiens) (UniProt Q9UIF8); assay: qHTS Assay for Inhibitors of BAZ2B; settings: AlphaScreen BAZ2B-H3K14Ac peptide displacement; activity change, negative = inhibition: at 114 µM (top of the series) unless noted; note: nearly all actives have a fitted effect of over 60% in size
Chain of UniProt Q9UIF8 (Q9UIF8 whole entry, looked up, the tested form may be a part): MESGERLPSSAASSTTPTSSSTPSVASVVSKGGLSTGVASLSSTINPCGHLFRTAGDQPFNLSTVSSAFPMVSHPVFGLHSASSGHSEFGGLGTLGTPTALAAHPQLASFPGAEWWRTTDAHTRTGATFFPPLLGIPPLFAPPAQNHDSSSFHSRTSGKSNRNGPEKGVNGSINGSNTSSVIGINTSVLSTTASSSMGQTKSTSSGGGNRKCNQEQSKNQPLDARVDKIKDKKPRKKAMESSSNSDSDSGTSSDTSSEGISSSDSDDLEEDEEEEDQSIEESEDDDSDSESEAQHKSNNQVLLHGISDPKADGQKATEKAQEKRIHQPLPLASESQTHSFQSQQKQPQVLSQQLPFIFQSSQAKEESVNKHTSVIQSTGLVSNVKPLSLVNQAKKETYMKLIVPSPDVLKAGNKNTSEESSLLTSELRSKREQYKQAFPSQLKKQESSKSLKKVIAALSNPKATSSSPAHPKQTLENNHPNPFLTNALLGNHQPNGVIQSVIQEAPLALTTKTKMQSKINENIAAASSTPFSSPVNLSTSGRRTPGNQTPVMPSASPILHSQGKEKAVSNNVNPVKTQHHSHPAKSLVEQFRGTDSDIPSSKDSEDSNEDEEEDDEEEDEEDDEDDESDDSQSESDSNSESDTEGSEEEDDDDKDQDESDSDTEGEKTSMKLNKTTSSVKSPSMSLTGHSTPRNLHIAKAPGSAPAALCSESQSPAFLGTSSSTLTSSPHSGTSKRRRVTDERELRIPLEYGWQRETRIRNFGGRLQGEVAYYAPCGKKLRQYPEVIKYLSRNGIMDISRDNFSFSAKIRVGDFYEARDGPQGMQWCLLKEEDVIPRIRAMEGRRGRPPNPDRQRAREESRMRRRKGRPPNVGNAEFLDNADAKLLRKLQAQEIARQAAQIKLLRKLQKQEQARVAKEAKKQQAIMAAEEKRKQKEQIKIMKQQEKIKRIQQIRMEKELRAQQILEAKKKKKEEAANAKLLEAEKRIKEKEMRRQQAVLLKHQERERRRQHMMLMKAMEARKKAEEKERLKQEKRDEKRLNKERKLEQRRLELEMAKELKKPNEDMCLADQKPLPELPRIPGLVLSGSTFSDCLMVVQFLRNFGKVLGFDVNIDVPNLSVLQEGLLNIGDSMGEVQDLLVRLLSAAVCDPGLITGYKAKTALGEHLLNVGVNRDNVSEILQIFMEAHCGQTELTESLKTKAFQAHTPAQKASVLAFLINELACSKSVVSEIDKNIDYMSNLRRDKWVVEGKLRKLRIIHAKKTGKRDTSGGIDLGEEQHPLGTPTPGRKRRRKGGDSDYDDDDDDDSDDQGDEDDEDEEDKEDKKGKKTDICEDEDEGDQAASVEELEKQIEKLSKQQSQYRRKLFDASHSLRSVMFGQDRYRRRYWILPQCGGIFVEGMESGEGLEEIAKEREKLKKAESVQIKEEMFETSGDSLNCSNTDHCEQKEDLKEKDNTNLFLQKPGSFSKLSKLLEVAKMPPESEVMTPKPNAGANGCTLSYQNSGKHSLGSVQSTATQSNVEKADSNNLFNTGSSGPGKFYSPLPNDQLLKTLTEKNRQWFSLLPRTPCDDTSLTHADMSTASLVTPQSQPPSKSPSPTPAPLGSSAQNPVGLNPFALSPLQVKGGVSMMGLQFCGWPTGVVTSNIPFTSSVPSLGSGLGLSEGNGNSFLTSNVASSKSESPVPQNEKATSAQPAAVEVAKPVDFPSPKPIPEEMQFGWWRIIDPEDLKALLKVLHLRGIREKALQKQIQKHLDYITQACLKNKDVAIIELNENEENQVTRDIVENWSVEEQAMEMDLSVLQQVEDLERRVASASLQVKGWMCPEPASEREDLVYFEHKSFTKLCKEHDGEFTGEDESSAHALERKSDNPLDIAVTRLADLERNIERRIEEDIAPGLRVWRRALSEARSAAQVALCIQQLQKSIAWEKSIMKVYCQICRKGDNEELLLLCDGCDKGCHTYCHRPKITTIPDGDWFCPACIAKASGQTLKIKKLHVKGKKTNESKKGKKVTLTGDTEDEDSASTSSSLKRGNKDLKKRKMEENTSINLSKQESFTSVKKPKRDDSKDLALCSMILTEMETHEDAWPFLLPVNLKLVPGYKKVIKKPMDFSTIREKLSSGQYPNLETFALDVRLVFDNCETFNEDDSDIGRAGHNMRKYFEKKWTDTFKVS
How it was run: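 Complex of BAZ2B and biotin-H3K14Ac (50 nM apiece) forms over 30 min at RT, then faces library compounds up to 110 uM for another 30 min; AlphaScreen beads added, 20 min dark incubation, luminescence read.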
% is set by controls: 0 for no effect and ±100 for the full control effect; potency is the fitted concentration of half-maximal effect; tags give direction and shape of the fitted curve.

Q: With `CCOc1ccc(/C=C2/Sc3ccc(C(=O)NCC4CCCO4)cc3N(C)C2=O)cc1OC` (centres undefined) as the compound, how does the Potency read?
A: inconclusive: 39.8 µM [inhibitor, partial curve]

Q: How did the Potency turn out when `Clc1ccc(CN2CCc3nc(Nc4ccc5c(c4)OCCO5)ncc3C2)cc1` was run?
A: active: 17.8 µM

Q: With `CNC(=O)c1[nH]cnc1C(=O)Nc1ccc(C)cc1` as the compound, how does the Potency read?
A: inconclusive: 89.1 µM [inhibitor, single point]

Q: With `CCOc1ccccc1CN(CCc1ccc2c(c1)OCO2)Cc1cc(OC)c(OC)cc1OC` as the compound, how does the Potency read?
A: active: 44.7 µM

Q: `COc1ccc2c(CC(=O)N3CCN(S(=O)(=O)c4ccc(F)cc4)CC3)coc2c1` was tested. Which Potency did it give?
A: inconclusive: 79.4 µM [inhibitor, single point]

Q: `Cc1ccc(C(=O)N/N=C/c2ccoc2)cc1C` was tested. Which Potency did it give?
A: inconclusive: 79.4 µM [inhibitor, single point]

Q: For `CN1/C(=C/C2CC(=O)NC2=O)C(C)(C)c2ccccc21` (centres undefined), which “activity change, negative = inhibition” value is on record?
A: inactive: -5.2%

Q: `COc1cccc(-c2nnc3n(CCc4ccccc4)c(=O)c4ccccc4n23)c1O` was tested. Which Potency did it give?
A: inconclusive: 89.1 µM [inhibitor, single point]

Q: Which Potency does the source give for `Cn1c(=O)c(=O)n(C)c2cc(N3CCCC3)c(NC(=O)c3ccc(C(C)(C)C)cc3)cc21` here?
A: inconclusive: 79.4 µM [inhibitor, single point]

Q: `Cn1cc2cc(NC(N)=S)ccc2n1` was tested. Which “activity change, negative = inhibition” value did it give?
A: inactive: -1.74%

Q: With `O=C(NC(=S)Nc1ccc(S(=O)(=O)Nc2nccs2)cc1)c1ccccc1F` as the compound, how does the Potency read?
A: inconclusive: 39.8 µM [inhibitor, partial curve]

Q: Which “activity change, negative = inhibition” value does the source give for `O=C(Nc1cccc(C(=O)Nc2cccc(C(F)(F)F)c2)c1)c1ccc(=O)[nH]c1` here?
A: inactive: 3.17%

Q: With `CCOC(=O)c1c(N2C(=O)Nc3cc(Cl)c(Cl)cc3N2O)sc2c1CCCCC2` as the compound, how does the Potency read?
A: inconclusive: 89.1 µM [inhibitor, single point]

Q: Which “activity change, negative = inhibition” value does the source give for `CCc1ccc(NC(=O)CSc2nnc(CNC(=O)c3c(F)cccc3Cl)o2)cc1` here?
A: inactive: -6.26%

Q: How did the “activity change, negative = inhibition” value turn out when `CCOc1ccc(-n2c(N)c(C(=O)N3CCN(C)CC3)sc2=S)cc1` was run?
A: inactive: -34.6%

Q: Which Potency does the source give for `O=C(Nn1cc(C(=O)Nc2ccccc2F)c2ccccc2c1=O)c1cnccn1` here?
A: active: 28.2 µM

Q: How did the Potency turn out when `COc1ccc(N(C(=O)Cn2nnc3ccccc32)C(C(=O)NCc2ccco2)c2ccc(C)o2)cc1` (centres undefined) was run?
A: active: 44.7 µM

Q: How did the “activity change, negative = inhibition” value turn out when `Cn1c(CC(=O)Nc2ccccc2C(F)(F)F)c(Sc2ccccc2)c2ccccc21` was run?
A: inactive: 6.84%

Q: Which “activity change, negative = inhibition” value does the source give for `COc1cc(C2N(c3cc(C)on3)C(=O)C3CCCN32)cc(OC)c1OC` (centres undefined) here?
A: inactive: 3.52%

Q: `CCCN(CCC)C(C(=O)Nc1cccc(OC)c1)c1ccccc1` (centres undefined) was tested. Which “activity change, negative = inhibition” value did it give?
A: inactive: 15.1%

Q: With `COc1ccc(CSc2nc3nc(C)cc(C)n3n2)cc1F` as the compound, how does the Potency read?
A: inconclusive: 89.1 µM [inhibitor, single point]

Q: `CCc1cccc(CC)c1-n1c(SCn2nnc3ccccc3c2=O)nnc1-c1cccnc1` was tested. Which Potency did it give?
A: inconclusive: 4.47 µM [inhibitor, full curve, poor fit]

Q: Which “activity change, negative = inhibition” value does the source give for `COc1ccccc1-c1nnc(C2CCN(S(=O)(=O)c3ccccc3)CC2)o1` here?
A: inactive: -13.9%

Q: `CCN(C(=O)c1c(OC)cccc1OC)c1nnc(-c2cccnc2)s1` was tested. Which “activity change, negative = inhibition” value did it give?
A: inactive: 2.89%

Q: `Cn1cc(S(=O)(=O)N2CCCC2)cc1C(=O)Nc1ccc(C(F)(F)F)cc1` was tested. Which Potency did it give?
A: inconclusive: 89.1 µM [inhibitor, single point]

Q: How did the Potency turn out when `COc1ccc(CNc2oc(COc3cccc(C)c3)nc2C#N)cc1` was run?
A: active: 14.1 µM

Q: How did the Potency turn out when `Cc1ccsc1/C=N/N1CCN(c2ccccc2)CC1` was run?
A: inconclusive: 15.8 µM [inhibitor, full curve]

Q: For `CCCc1ccc(OCc2ccc(C(=O)N3CCN(c4ccccn4)CC3)o2)c(OC)c1`, which Potency is on record?
A: inconclusive: 44.7 µM [inhibitor, partial curve]

Q: Which “activity change, negative = inhibition” value does the source give for `COc1ccc(-c2csc(NC(=O)CCCc3nc4ccccc4c(=O)[nH]3)n2)cc1OC` here?
A: inactive: -2.62%

Q: With `COc1ccc(N2CCN(C(=O)COC(=O)c3ccc(CSC)o3)CC2)cc1` as the compound, how does the Potency read?
A: inconclusive: 89.1 µM [inhibitor, single point]

Q: With `CC(c1ccc(O)cc1)(c1ccc(O)cc1)c1ccc(CCBr)cc1` as the compound, how does the Potency read?
A: inconclusive: 56.2 µM [inhibitor, partial curve]

Q: Which “activity change, negative = inhibition” value does the source give for `O=C(Nc1ccccc1)Nc1c(F)cccc1F` here?
A: inactive: -19.3%

Q: For `Cc1c(NC(=O)c2cccnc2C(=O)O)cccc1C(=O)O`, which Potency is on record?
A: active: 35.5 µM

Q: Which Potency does the source give for `Cc1ccc(OCCN2CCNCC2)c([N+](=O)[O-])c1` here?
A: active: 56.2 µM

Q: How did the Potency turn out when `CCN(CC)c1ccc(/C=N/NC(=O)Cc2cccs2)c(O)c1` was run?
A: inconclusive: 31.6 µM [inhibitor, full curve, poor fit]

Q: `CN(C(=O)Cc1c[nH]c2ccccc12)C(C(=O)Nc1ccc2c(c1)OCO2)c1ccccc1` (centres undefined) was tested. Which Potency did it give?
A: inconclusive: 28.2 µM [inhibitor, full curve]

Q: For `Oc1c(CN2CCN(c3ccccc3)CC2)cc(Br)c2cccnc12`, which Potency is on record?
A: inconclusive: 100 µM [inhibitor, single point]

Q: For `O=C(NCCN1CCOCC1)c1ccc(NC(=O)C2COc3ccccc3O2)cc1` (centres undefined), which Potency is on record?
A: inconclusive: 89.1 µM [inhibitor, single point]

Q: For `Cc1cc(Nc2ccc(C(C)C)cc2)nc(-n2nc(C)cc2C)n1`, which “activity change, negative = inhibition” value is on record?
A: inactive: -37.6%

Q: Which Potency does the source give for `CC1=C(C(=O)Nc2cc(C(=O)N3CCN(c4cccc(C)c4)C(C)C3)ccc2C)SCCO1` (centres undefined) here?
A: inconclusive: 17.8 µM [inhibitor, partial curve]

Q: Which “activity change, negative = inhibition” value does the source give for `C=CCN(c1ccccc1)S(=O)(=O)c1cccc(C(=O)NC2CCN(Cc3ccccc3)CC2)c1` here?
A: inactive: -2.8%

Q: Which Potency does the source give for `CCC1C(=O)Nc2nc(-c3ccccc3)c(-c3ccccc3)n2N=C1C` (centres undefined) here?
A: inconclusive: 79.4 µM [inhibitor, single point]

Q: Which Potency does the source give for `CCC(c1nnnn1CCc1ccccc1)N1CCN(C(=O)c2ccco2)CC1` (centres undefined) here?
A: active: 50.1 µM

Q: Which Potency does the source give for `Cc1nnc(SCc2ccccc2Cl)c2cc3occc3n12` here?
A: active: 28.2 µM

Q: How did the “activity change, negative = inhibition” value turn out when `COc1ccc(Cl)cc1N(CC(=O)Nc1ccccc1C(=O)N1CCCC1)S(C)(=O)=O` was run?
A: inactive: 2.91%

Q: Which Potency does the source give for `Cc1ccccc1C1C(C#N)=C2N=C(N)c3c(sc4c3CCCCC4)N2C2=C1C(=O)CC(C)(C)C2` (centres undefined) here?
A: inconclusive: 25.1 µM [inhibitor, single point]

Q: How did the Potency turn out when `CC1=NN(c2ccc(C)cc2)C(=O)/C1=C\C=C\c1ccccc1` was run?
A: active: 2.51 µM

Q: `Cc1ccc(NC(=O)C(Cc2ccccc2)n2cccc2)c(C)c1` (centres undefined) was tested. Which “activity change, negative = inhibition” value did it give?
A: inactive: -6.26%

Q: Which Potency does the source give for `O=C(Nc1cc(-c2nc3ccccc3s2)ccc1Cl)c1ccc2c(c1)OCO2` here?
A: inconclusive: 89.1 µM [inhibitor, single point]

Q: For `COc1ccc2c(CNCc3cccs3)c(C(=O)O)n(Cc3ccc(F)cc3Cl)c2c1`, which Potency is on record?
A: inconclusive: 70.8 µM [inhibitor, single point]

Q: How did the “activity change, negative = inhibition” value turn out when `CCCCn1c(=N)n(CC(=O)c2ccc([N+](=O)[O-])cc2)c2ccccc21` was run?
A: inactive: -31.5%

Q: For `O=C(CCSCCC(=O)NCc1ccco1)NCc1ccco1`, which Potency is on record?
A: active: 56.2 µM

Q: How did the Potency turn out when `COc1ccccc1NC(=O)N[C@@H](Cc1c[nH]c2ccccc12)C(=O)NN` was run?
A: inconclusive: 89.1 µM [inhibitor, single point]

Q: How did the “activity change, negative = inhibition” value turn out when `O=C(CN(C(=O)CCC(=O)Nc1ccccn1)c1ccc(F)cc1)NCc1ccc(F)cc1` was run?
A: inactive: -5.08%

Q: Which Potency does the source give for `C[N+](C)(C)CCCNC(=O)c1ccc(/C=N/O)nc1` here?
A: active: 20 µM

Q: For `O=C(c1ccc(F)cc1)N1CCN(Cc2ccccc2Br)CC1`, which Potency is on record?
A: inconclusive: 89.1 µM [inhibitor, single point]

Q: With `O=C(CN1CCOCC1)NNC(=S)Nc1ccc(Cl)cc1` as the compound, how does the Potency read?
A: inconclusive: 3.98 µM [inhibitor, full curve]

Q: `O=C(C1=C[C@@H](c2ccc(Br)cc2)C[C@@H](OCCCCO)O1)N1CCN(Cc2ccccc2)CC1` was tested. Which Potency did it give?
A: inconclusive: 79.4 µM [inhibitor, single point]

Q: Which Potency does the source give for `COC(=O)Cc1ccc(NC(=S)NCc2ccc(OC)cc2)cc1` here?
A: inconclusive: 79.4 µM [inhibitor, single point]

Q: Which Potency does the source give for `CCOC(=O)C1=C(c2ccccc2)Nc2ncnn2C1c1ccc(Cl)cc1` (centres undefined) here?
A: inconclusive: 89.1 µM [inhibitor, single point]

Q: With `COc1ccc(C(=O)CCN2CCN(c3ccccc3F)CC2)cc1` as the compound, how does the “activity change, negative = inhibition” value read?
A: inactive: -32.7%

Q: Which Potency does the source give for `CCOC(=O)C1=C(O)/C(=C/c2cccc(OC)c2O)N=C1C` here?
A: inconclusive: 70.8 µM [inhibitor, single point]

Q: Which Potency does the source give for `CCCCN(CC)S(=O)(=O)c1ccccc1` here?
A: inconclusive: 100 µM [inhibitor, single point]

Q: For `O=C(CN1C(=O)/C(=C/c2ccccc2F)Sc2ccccc21)NCc1cccnc1`, which Potency is on record?
A: inconclusive: 50.1 µM [inhibitor, partial curve]

Q: Which Potency does the source give for `COc1ccc(Cl)cc1Nc1nc(-c2sc(NC(=O)C(C)(C)C)nc2C)cs1` here?
A: inconclusive: 79.4 µM [inhibitor, single point]

Q: How did the Potency turn out when `CC1CN(C(=O)c2ccc(NS(=O)(=O)c3ccc(F)c(F)c3)cc2)CC(C)O1` (centres undefined) was run?
A: inconclusive: 89.1 µM [inhibitor, single point]

Q: Which Potency does the source give for `Cc1ccccc1N1CCN(C(=S)c2ccc(-c3ccc([N+](=O)[O-])cc3)o2)CC1` here?
A: active: 7.94 µM

Q: Which Potency does the source give for `CCc1cc2c(nc1CC)CCN(CC/C(C)=N/O[C@@H](C)c1cc(-c3c(C)cc(C)cc3C)no1)C2` here?
A: inconclusive: 89.1 µM [inhibitor, single point]

Q: `Cc1ccc(S(=O)(=O)NCC(c2ccco2)N2CCN(c3ccccc3F)CC2)cc1` (centres undefined) was tested. Which “activity change, negative = inhibition” value did it give?
A: inactive: -4.48%

Q: `CC(=O)Nc1nc(C)c(-c2csc(Nc3ccccn3)n2)s1` was tested. Which Potency did it give?
A: inconclusive: 79.4 µM [inhibitor, single point]

Q: How did the “activity change, negative = inhibition” value turn out when `C=C(C)CNC(=S)Nc1sc2c(c1C(=O)OCC)CC(C)(C)OC2` was run?
A: inactive: 8.92%

Q: For `CN(C)c1ccc(CN(C(=O)c2cccs2)C2CCS(=O)(=O)C2)cc1` (centres undefined), which “activity change, negative = inhibition” value is on record?
A: inactive: -6.46%

Q: For `COc1ccc(CCN(C)C(=O)c2cncc(Br)c2)cc1OC`, which “activity change, negative = inhibition” value is on record?
A: inactive: 4.78%

Q: With `CCCCn1c(N)c(N(CC(C)C)C(=O)COC(=O)Cc2c(C)nc3ccccc3c2C)c(=O)[nH]c1=O` as the compound, how does the “activity change, negative = inhibition” value read?
A: inactive: -6.26%
